The other results are listed elsewhere or left out.
Key:
Experiment in all cases: glycan array binding signal (z-score within array); higher = stronger binding
Details in all cases: glycan notation: IUPAC condensed, linker removed
[1] = target: Neu5Ac(a2-6)Gal(b1-4)GlcNAc(b1-2)Man(a1-3)[Man(a1-6)]Man(b1-4)GlcNAc(b1-4)GlcNAc
Method in brief: (§1)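 The binding signal is a Z-score computed within each array. Data were drawn from 3228 arrays in the Consortium for Functional Glycomics database, restricted to those with a known protein sequence. Scores were averaged over arrays of the same protein sequence at different concentrations or buffers, and over linkers, and negative values can be taken as non-binding.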

[2] = target: Neu5Ac(a2-6)Gal(b1-4)GlcNAc(b1-2)Man(a1-3)[Neu5Ac(a2-3)Gal(b1-4)GlcNAc(b1-2)Man(a1-6)]Man(b1-4)GlcNAc(b1-4)GlcNAc
Method in brief: as §1

[3] = target: Neu5Ac(a2-6)Gal(b1-4)GlcNAc(b1-2)Man(a1-3)[Neu5Ac(a2-6)Gal(b1-4)GlcNAc(b1-2)Man(a1-6)]Man(b1-4)GlcNAc(b1-4)GlcNAc
Method in brief: as §1

[4] = target: Neu5Ac(a2-6)Gal(b1-4)GlcNAc(b1-2)Man(a1-3)[Neu5Ac(a2-6)Gal(b1-4)GlcNAc(b1-2)Man(a1-6)]Man(b1-4)GlcNAc(b1-4)[Fuc(a1-6)]GlcNAc
Method in brief: as §1

[5] = target: Neu5Ac(a2-6)Gal(b1-4)GlcNAc(b1-2)Man(a1-6)Man(b1-4)GlcNAc(b1-4)GlcNAc
Method in brief: as §1

[6] = target: Neu5Ac(a2-6)Gal(b1-4)GlcNAc(b1-2)Man(a1-6)[Gal(b1-4)GlcNAc(b1-2)Man(a1-3)]Man(b1-4)GlcNAc(b1-4)GlcNAc
Method in brief: as §1

[7] = target: Neu5Ac(a2-6)Gal(b1-4)GlcNAc(b1-2)Man(a1-6)[GlcNAc(b1-2)Man(a1-3)]Man(b1-4)GlcNAc(b1-4)GlcNAc
Method in brief: as §1

[8] = target: Neu5Ac(a2-6)Gal(b1-4)GlcNAc(b1-2)Man(a1-6)[Man(a1-3)]Man(b1-4)GlcNAc(b1-4)GlcNAc
Method in brief: as §1

[9] = target: Neu5Ac(a2-6)Gal(b1-4)GlcNAc(b1-2)[Neu5Ac(a2-6)Gal(b1-4)GlcNAc(b1-4)]Man(a1-3)[GlcNAc(b1-4)][Neu5Ac(a2-6)Gal(b1-4)GlcNAc(b1-2)[Neu5Ac(a2-6)Gal(b1-4)GlcNAc(b1-6)]Man(a1-6)]Man(b1-4)GlcNAc(b1-4)GlcNAc
Method in brief: as §1

[10] = target: Neu5Ac(a2-6)Gal(b1-4)GlcNAc(b1-2)[Neu5Ac(a2-6)Gal(b1-4)GlcNAc(b1-4)]Man(a1-3)[GlcNAc(b1-4)][Neu5Ac(a2-6)Gal(b1-4)GlcNAc(b1-4)Man(a1-6)]Man(b1-4)GlcNAc(b1-4)GlcNAc
Method in brief: as §1

[11] = target: Neu5Ac(a2-6)Gal(b1-4)GlcNAc(b1-2)[Neu5Ac(a2-6)Gal(b1-4)GlcNAc(b1-6)]Man(a1-6)[Neu5Ac(a2-6)Gal(b1-4)GlcNAc(b1-2)Man(a1-3)][GlcNAc(b1-4)]Man(b1-4)GlcNAc(b1-4)GlcNAc
Method in brief: as §1

[12] = target: Neu5Ac(a2-6)Gal(b1-4)GlcNAc(b1-3)Gal(b1-3)GlcNAc
Method in brief: as §1

[13] = target: Neu5Ac(a2-6)Gal(b1-4)GlcNAc(b1-3)Gal(b1-4)GlcNAc
Method in brief: as §1

[14] = target: Neu5Ac(a2-6)Gal(b1-4)GlcNAc(b1-3)Gal(b1-4)GlcNAc(b1-2)Man(a1-3)[Neu5Ac(a2-6)Gal(b1-4)GlcNAc(b1-3)Gal(b1-4)GlcNAc(b1-2)Man(a1-6)]GalNAc
Method in brief: as §1

[15] = target: Neu5Ac(a2-6)Gal(b1-4)GlcNAc(b1-3)Gal(b1-4)GlcNAc(b1-3)Gal(b1-4)GlcNAc
Method in brief: as §1

[16] = target: Neu5Ac(a2-6)Gal(b1-4)GlcNAc(b1-3)Gal(b1-4)GlcNAc(b1-3)Gal(b1-4)GlcNAc(b1-2)Man(a1-3)[Neu5Ac(a2-6)Gal(b1-4)GlcNAc(b1-3)Gal(b1-4)GlcNAc(b1-3)Gal(b1-4)GlcNAc(b1-2)Man(a1-6)]GalNAc
Method in brief: as §1

[17] = target: Neu5Ac(a2-6)Gal(b1-4)GlcNAc(b1-3)Gal(b1-4)GlcNAc(b1-3)GalNAc
Method in brief: as §1

[18] = target: Neu5Ac(a2-6)Gal(b1-4)GlcNAc(b1-3)Gal(b1-4)GlcNAc(b1-3)[Neu5Ac(a2-6)Gal(b1-4)GlcNAc(b1-3)Gal(b1-4)GlcNAc(b1-6)]GalNAc
Method in brief: as §1

[19] = target: Neu5Ac(a2-6)Gal(b1-4)GlcNAc(b1-3)Gal(b1-4)GlcNAc(b1-6)[Gal(b1-3)]GalNAc
Method in brief: as §1

[20] = target: Neu5Ac(a2-6)Gal(b1-4)GlcNAc(b1-3)Gal(b1-4)[Fuc(a1-3)]GlcNAc(b1-3)Gal(b1-4)[Fuc(a1-3)]GlcNAc
Method in brief: as §1

[21] = target: Neu5Ac(a2-6)Gal(b1-4)GlcNAc(b1-3)GalNAc
Method in brief: as §1

[22] = target: Neu5Ac(a2-6)Gal(b1-4)GlcNAc(b1-3)[Neu5Ac(a2-6)Gal(b1-4)GlcNAc(b1-6)]GalNAc
Method in brief: as §1

[23] = target: Neu5Ac(a2-6)Gal(b1-4)GlcNAc(b1-6)GalNAc
Method in brief: as §1

[24] = target: Neu5Ac(a2-6)Gal(b1-4)GlcNAc(b1-6)[Gal(b1-3)GlcNAc(b1-3)]Gal(b1-4)Glc
Method in brief: as §1

[25] = target: Neu5Ac(a2-6)Gal(b1-4)GlcNAc(b1-6)[Gal(b1-3)]GalNAc
Method in brief: as §1

[26] = target: Neu5Ac(a2-6)Gal(b1-4)GlcNAc6S
Method in brief: as §1

[27] = target: Neu5Ac(a2-6)GalNAc
Method in brief: as §1

[28] = target: Neu5Ac(a2-6)GalNAc(b1-4)GlcNAc
Method in brief: as §1

[29] = target: Neu5Ac(a2-6)GalNAc(b1-4)GlcNAc6S
Method in brief: as §1

[30] = target: Neu5Ac(a2-6)GlcNAc(b1-4)GlcNAc
Method in brief: as §1

[31] = target: Neu5Ac(a2-6)GlcNAc(b1-4)GlcNAc(b1-4)GlcNAc
Method in brief: as §1

B1: MGL1 (Mus musculus), P49300 (protein)
chain: MIYENLQNSRIEEKTQEPGKAPSQSFLWRILSWTHLLLFSLGLSLLLLVVVSVIGSQNSQLRRDLGTLRATLDNTTSKIKAEFQSLDSRADSFEKGISSLKVDVEDHRQELQAGRDLSQKVTSLESTVEKREQALKTDLSDLTDHVQQLRKDLKALTCQLANLKNNGSEVACCPLHWTEHEGSCYWFSESEKSWPEADKYCRLENSHLVVVNSLEEQNFLQNRLANVVSWIGLTDQNGPWRWVDGTDFEKGFKNWAPLQPDNWFGHGLGGGEDCAHITTGGPWNDDVCQRTFRWICEMKLAKES
- glycan array binding signal (z-score) [1]: -0.67
- glycan array binding signal (z-score) [2]: -0.988
- glycan array binding signal (z-score) [3]: -0.261
- glycan array binding signal (z-score) [4]: -0.696
- glycan array binding signal (z-score) [5]: -0.687
- glycan array binding signal (z-score) [6]: -0.486
- glycan array binding signal (z-score) [7]: -0.274
- glycan array binding signal (z-score) [8]: -0.424
- glycan array binding signal (z-score) [9]: -0.515
- glycan array binding signal (z-score) [10]: 0.035
- glycan array binding signal (z-score) [11]: -0.446
- glycan array binding signal (z-score) [12]: -0.692
- glycan array binding signal (z-score) [13]: -0.601
- glycan array binding signal (z-score) [14]: 0.747
- glycan array binding signal (z-score) [15]: -0.412
- glycan array binding signal (z-score) [16]: 1.83
- glycan array binding signal (z-score) [17]: -0.695
- glycan array binding signal (z-score) [18]: 1.11
- glycan array binding signal (z-score) [19]: 0.585
- glycan array binding signal (z-score) [20]: -0.05
- glycan array binding signal (z-score) [21]: -0.946
- glycan array binding signal (z-score) [22]: 0.126
- glycan array binding signal (z-score) [23]: -0.855
- glycan array binding signal (z-score) [24]: -0.342
- glycan array binding signal (z-score) [25]: -0.297
- glycan array binding signal (z-score) [26]: -0.094
- glycan array binding signal (z-score) [27]: 0.136
- glycan array binding signal (z-score) [28]: 0.221
- glycan array binding signal (z-score) [29]: 0.527
- glycan array binding signal (z-score) [30]: -0.401
- glycan array binding signal (z-score) [31]: -0.198

Source: the supplement of paper PMC8728848
